{"source": "PubChem BioAssay AID1963838", "about": "(Molecular Pharmacology Branch, DTP, NCI, 2024)", "system": "855422-203-R-J1-PDC complex spheroid viability", "experiment": "Anticancer human tumor 855422-203-R-J1-PDC patient-derived bladder carcinoma cell line growth inhibition [POLQ]", "settings": "stronger effect = lower value", "method": "Multicellular complex tumor spheroid response to Polymerase (POL) inhibitors (novobiocin, ART-558, RP6685) in combination with a variety of drugs and investigational agents in selected tumor cell lines\nThe POL inhibitors (novobiocin, ART-558, and RP6685) were evaluated both individually and in combination with standard of care and investigational anticancer small molecules within a complex spheroid model of solid tumors. . Complex spheroids include a stromal component modeled by human endothelial cells (HUVEC) and fibroblasts modeled by human mesenchymal stem cells (MSCs). The concentration ranges selected for each drug and investigational agent were based upon clinically achievable concentrations if the clinical Cmax of the agent was known.\nCompounds. The drugs and investigational agents: novobiocin (NSC847541), ART-558 (NSC835418), RP-6685 (NSC848927), peposertib (NSC802822), ceralasertib (NSC780249), elimusertib (NSC800525), camonsertib (NSC841442), AZD-1390 (NSC803789), olaparib (NSC753686), talazoparib (NSC767125), rucaparib (NSC756644), sotorasib (NSC818433), MRTX-1133 (NSC836407), SN-38 (NSC673596), topotecan (NSC609699), epotoside (NSC141540), doxorubicin (NSC123127), gemcitabine (NSC613327), 5-fluorouracil (NSC19893), paclitaxel (NSC125973), vemurafenib (NSC761431), MSA-2 (NSC828583), SN-011 (NSC837082), adavosertib (NSC754352), prexasertib (NSC758257), carboplatin (NSC241240) and oxaliplatin (NSC266046), were obtained from the National Cancer Institute (NCI) Developmental Therapeutics Program Chemical Repository (21). The FDA-approved anticancer drug set is available from the Developmental Therapeutics Program at https://dtp.cancer.gov/organization/dscb/obtaining/. […] If the clinical Cmax for an agent had not been determined, the highest concentration tested was 10 microM, except for SN-38, which was tested at a high concentration of 1 microM. […]", "note": "Some entries of the source have several records that differ or are many. This is not the full list of results. The source may hold further records. Values given together are repeated measurements across runs, samples, wells, individuals or studies. Marks such as (2×) say how often a value occurs here.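 Also: spheroids exposed to compounds for seven days before readout.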"}
{"smiles": "Cc1cccc(N(C)C(=O)C2C(O)CCN2c2nc(C)cc(C(F)(F)F)c2C#N)c1", "note": "(stereo not drawn)", "values": [{"measurement": "viability, T/C", "setting": "compound alone 0.1 µM", "result": "101, 86.3, 111, 99.8, 89.3, 99.7, 114, 109 (3×), 93.1, 86.2, 100%"}]}
{"smiles": "COC1C(OC(N)=O)C(O)C(Oc2ccc3c(O)c(NC(=O)c4ccc(O)c(CC=C(C)C)c4)c(=O)oc3c2C)OC1(C)C", "note": "(stereo not drawn)", "values": [{"measurement": "viability, T/C", "setting": "compound alone 10 µM", "result": "104, 100, 103, 88.9, 108, 105, 110, 99.3, 116, 94.2, 99 (2×), 107%"}]}
{"smiles": "Nc1ccc(C#CCN(C(=O)Cc2ncc(C(F)(F)F)cc2C(F)(F)F)c2ccc(F)cc2)nn1", "values": [{"measurement": "viability, T/C", "setting": "compound alone 1 µM", "result": "108, 101, 99.8, 113 (2×), 104, 95.3, 94.9, 120, 94.7, 97.2, 109, 95.5%"}]}
